# Results as given in the supplement of paper PMC8728848.
# This is one part of the list.
# B1: GS7807E-bfa-538-23-538 (Bacteroides fragilis) (protein)
# chain: TDSFESFNTNEAGFDNDSKKQDFNYYGIPLGIIQQGIYFNYDWGSGKNWPFQTMQNLGADLFSGYVHDFNPFNEGKNNSTYYMMDGWNGSTWDNTYGYIMPEVQKSETINEKDNIGFFGITKILKVELMHRLSDLYGPIVYTQFGSKTGSTPDTQQEAYKAFFNDLDTGIAKIREYQKANPDIESFAKFDILMPQGKRTFSEWIRFANSLRLRLAVRIAMADSKLAVAEAQKALTDEEGLLEGNDEVVAVSTSSGYTNPFGEINKAWGEVFMNANMESLLVGYEDPRMEKYFDKATGSDATSLIDYKGTYKGIRQGTGFSHKNYNGHSKSTITQQTDAVLMTPAEVWFLRAEAALRGWSSESVKDCYEKGVKASFAQWGAAGAEAYLESDRKPSDYVDAFKAANNVKAVNTLTPKWDDAAGNEDKLGRIITQKWLAMFPEGGEAWAEQRRTGYPRLFPVLVNQSEGTVDTNLGPRRLNFFVGIKTTNPEQYTQLVNALGGIDNCGTRLWWDTGRNF
# Key:
# Assay in all cases: glycan array binding signal (z-score within array); higher = stronger binding
# Conditions in all cases: glycan notation: IUPAC condensed, linker removed
# Gal6S(b1-4)Glc6S = biological target: Gal6S(b1-4)Glc6S
# Procedure, shortened: (§1)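 Glycan array binding is given as a within-array Z-score, which can be read as non-binding when negative. The arrays, 3228 of them, came from the Consortium for Functional Glycomics database and were retained only where the protein sequence was available. Z-scores were averaged across arrays of the same protein sequence at different concentrations or buffers and across linkers.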
# Gal6S(b1-4)GlcNAc = biological target: Gal6S(b1-4)GlcNAc
# Procedure, shortened: as §1
# Gal6S(b1-4)GlcNAc6S = biological target: Gal6S(b1-4)GlcNAc6S
# Procedure, shortened: as §1
# GalNAc(a1-3)Gal = biological target: GalNAc(a1-3)Gal
# Procedure, shortened: as §1
# GalNAc(a1-3)GalNAc = biological target: GalNAc(a1-3)GalNAc
# Procedure, shortened: as §1
# [1] = biological target: GalNAc(a1-3)GalNAc(b1-3)Gal(a1-4)Gal(b1-4)Glc
# Procedure, shortened: as §1
# [2] = biological target: GalNAc(a1-3)GalNAc(b1-3)Gal(a1-4)Gal(b1-4)GlcNAc
# Procedure, shortened: as §1
# GalNAc(b1-3)Gal = biological target: GalNAc(b1-3)Gal
# Procedure, shortened: as §1
# [3] = biological target: GalNAc(b1-3)Gal(a1-4)Gal(b1-4)GlcNAc
# Procedure, shortened: as §1
# [4] = biological target: GalNAc(b1-3)Gal(a1-4)Gal(b1-4)GlcNAc(b1-3)Gal(b1-4)Glc
# Procedure, shortened: as §1
# [5] = biological target: GalNAc(b1-3)Gal(a1-6)Gal(b1-4)Glc
# Procedure, shortened: as §1
# GalNAc(b1-3)GalNAc = biological target: GalNAc(b1-3)GalNAc
# Procedure, shortened: as §1
# GalNAc(b1-3)GlcNAc = biological target: GalNAc(b1-3)GlcNAc
# Procedure, shortened: as §1
# GalNAc(b1-4)Gal(b1-4)Glc = biological target: GalNAc(b1-4)Gal(b1-4)Glc
# Procedure, shortened: as §1
# GalNAc(b1-4)GlcNAc = biological target: GalNAc(b1-4)GlcNAc
# Procedure, shortened: as §1
# [6] = biological target: GalNAc(b1-4)GlcNAc(b1-2)Man
# Procedure, shortened: as §1
# [7] = biological target: GalNAc(b1-4)GlcNAc(b1-2)Man(a1-3)[GalNAc(b1-4)GlcNAc(b1-2)Man(a1-6)]Man(b1-4)GlcNAc(b1-4)GlcNAc
# Procedure, shortened: as §1
# [8] = biological target: GalNAc(b1-4)GlcNAc(b1-3)GalNAc(b1-4)GlcNAc
# Procedure, shortened: as §1
# GalNAc(b1-4)GlcNAc6S = biological target: GalNAc(b1-4)GlcNAc6S
# Procedure, shortened: as §1
# GalNAc(b1-6)GalNAc = biological target: GalNAc(b1-6)GalNAc
# Procedure, shortened: as §1
# GalNAc3S(b1-4)GlcNAc = biological target: GalNAc3S(b1-4)GlcNAc
# Procedure, shortened: as §1
# GalNAc3S(b1-4)GlcNAc3S = biological target: GalNAc3S(b1-4)GlcNAc3S
# Procedure, shortened: as §1
# [9] = biological target: GalNAc3S(b1-4)[Fuc(a1-3)]GlcNAc
# Procedure, shortened: as §1
# GalNAc4S6S(b1-4)GlcNAc = biological target: GalNAc4S6S(b1-4)GlcNAc
# Procedure, shortened: as §1
# GalNAc6S(b1-4)GlcNAc = biological target: GalNAc6S(b1-4)GlcNAc
# Procedure, shortened: as §1
# Glc(a1-4)Glc = biological target: Glc(a1-4)Glc
# Procedure, shortened: as §1
# [10] = biological target: Glc(a1-4)Glc(a1-4)Glc(a1-4)Glc
# Procedure, shortened: as §1
# Glc(a1-6)Glc(a1-6)Glc = biological target: Glc(a1-6)Glc(a1-6)Glc
# Procedure, shortened: as §1
# [11] = biological target: Glc(a1-6)Glc(a1-6)Glc(a1-6)Glc
# Procedure, shortened: as §1
# Glc(b1-4)Glc = biological target: Glc(b1-4)Glc
# Procedure, shortened: as §1
# Glc(b1-6)Glc = biological target: Glc(b1-6)Glc
# Procedure, shortened: as §1
# GlcA(b1-3)Gal = biological target: GlcA(b1-3)Gal
# Procedure, shortened: as §1
# GlcA(b1-3)GlcNAc = biological target: GlcA(b1-3)GlcNAc
# Procedure, shortened: as §1
# GlcA(b1-6)Gal = biological target: GlcA(b1-6)Gal
# Procedure, shortened: as §1
# [12] = biological target: GlcA3S(b1-3)Gal(b1-4)GlcNAc(b1-2)Man
# Procedure, shortened: as §1
# [13] = biological target: GlcA3S(b1-3)Gal(b1-4)GlcNAc(b1-3)Gal(b1-4)Glc
# Procedure, shortened: as §1
# [14] = biological target: GlcNAc(a1-3)Gal(b1-4)GlcNAc
# Procedure, shortened: as §1
# [15] = biological target: GlcNAc(a1-4)Gal(b1-3)GlcNAc
# Procedure, shortened: as §1
# [16] = biological target: GlcNAc(a1-4)Gal(b1-4)GalNAc
# Procedure, shortened: as §1
# [17] = biological target: GlcNAc(a1-4)Gal(b1-4)GlcNAc
# Procedure, shortened: as §1
# [18] = biological target: GlcNAc(a1-4)Gal(b1-4)GlcNAc(b1-3)Gal(b1-4)Glc
# Procedure, shortened: as §1
# [19] = biological target: GlcNAc(a1-4)Gal(b1-4)GlcNAc(b1-3)Gal(b1-4)GlcNAc
# Procedure, shortened: as §1
# [20] = biological target: GlcNAc(a1-4)Gal(b1-4)GlcNAc(b1-3)Gal(b1-4)GlcNAc(b1-3)Gal(b1-4)GlcNAc
# Procedure, shortened: as §1
# [21] = biological target: GlcNAc(a1-4)Gal(b1-4)GlcNAc(b1-3)Gal(b1-4)[Fuc(a1-3)]GlcNAc(b1-3)Gal(b1-4)[Fuc(a1-3)]GlcNAc
# Procedure, shortened: as §1
# [22] = biological target: GlcNAc(a1-6)Gal(b1-4)GlcNAc
# Procedure, shortened: as §1
binder,measurement,setting,value
B1,glycan array binding signal (z-score),Gal6S(b1-4)Glc6S,1.84
same,glycan array binding signal (z-score),Gal6S(b1-4)GlcNAc,1.23
same,glycan array binding signal (z-score),Gal6S(b1-4)GlcNAc6S,-0.472
same,glycan array binding signal (z-score),GalNAc(a1-3)Gal,0.863
same,glycan array binding signal (z-score),GalNAc(a1-3)GalNAc,0.104
same,glycan array binding signal (z-score),[1],-0.533
same,glycan array binding signal (z-score),[2],-0.658
same,glycan array binding signal (z-score),GalNAc(b1-3)Gal,1.46
same,glycan array binding signal (z-score),[3],-0.246
same,glycan array binding signal (z-score),[4],-0.54
same,glycan array binding signal (z-score),[5],0.894
same,glycan array binding signal (z-score),GalNAc(b1-3)GalNAc,-0.682
same,glycan array binding signal (z-score),GalNAc(b1-3)GlcNAc,0.484
same,glycan array binding signal (z-score),GalNAc(b1-4)Gal(b1-4)Glc,-0.452
same,glycan array binding signal (z-score),GalNAc(b1-4)GlcNAc,0.718
same,glycan array binding signal (z-score),[6],-0.041
same,glycan array binding signal (z-score),[7],0.2
same,glycan array binding signal (z-score),[8],0.955
same,glycan array binding signal (z-score),GalNAc(b1-4)GlcNAc6S,-0.418
same,glycan array binding signal (z-score),GalNAc(b1-6)GalNAc,-0.682
same,glycan array binding signal (z-score),GalNAc3S(b1-4)GlcNAc,-0.655
same,glycan array binding signal (z-score),GalNAc3S(b1-4)GlcNAc3S,-0.697
same,glycan array binding signal (z-score),[9],3.75
same,glycan array binding signal (z-score),GalNAc4S6S(b1-4)GlcNAc,-0.65
same,glycan array binding signal (z-score),GalNAc6S(b1-4)GlcNAc,-0.443
same,glycan array binding signal (z-score),Glc(a1-4)Glc,-0.685
same,glycan array binding signal (z-score),[10],-0.541
same,glycan array binding signal (z-score),Glc(a1-6)Glc(a1-6)Glc,-0.697
same,glycan array binding signal (z-score),[11],-0.632
same,glycan array binding signal (z-score),Glc(b1-4)Glc,-0.412
same,glycan array binding signal (z-score),Glc(b1-6)Glc,-0.646
same,glycan array binding signal (z-score),GlcA(b1-3)Gal,-0.712
same,glycan array binding signal (z-score),GlcA(b1-3)GlcNAc,-0.585
same,glycan array binding signal (z-score),GlcA(b1-6)Gal,-0.128
same,glycan array binding signal (z-score),[12],-0.684
same,glycan array binding signal (z-score),[13],0.65
same,glycan array binding signal (z-score),[14],-0.706
same,glycan array binding signal (z-score),[15],-0.658
same,glycan array binding signal (z-score),[16],-0.527
same,glycan array binding signal (z-score),[17],-0.444
same,glycan array binding signal (z-score),[18],-0.595
same,glycan array binding signal (z-score),[19],-0.642
same,glycan array binding signal (z-score),[20],-0.65
same,glycan array binding signal (z-score),[21],-0.514
same,glycan array binding signal (z-score),[22],1.61
